In article PMC4336329 (PLoS ONE, 2015):
Among all 310,000 compounds or so, about 2,200 (0.71%) showed an effect of 50% or more. The effect is printed as a negative number. Some of the results follow.

The compounds below were run against human ether-à-go-go-related gene (hERG) potassium channel (human, UniProt Q12809) (assay: primary screen, population patch clamp on CHO cells stably expressing hERG).
human ether-à-go-go-related gene (hERG) potassium channel, sequence (Q12809 whole entry, looked up): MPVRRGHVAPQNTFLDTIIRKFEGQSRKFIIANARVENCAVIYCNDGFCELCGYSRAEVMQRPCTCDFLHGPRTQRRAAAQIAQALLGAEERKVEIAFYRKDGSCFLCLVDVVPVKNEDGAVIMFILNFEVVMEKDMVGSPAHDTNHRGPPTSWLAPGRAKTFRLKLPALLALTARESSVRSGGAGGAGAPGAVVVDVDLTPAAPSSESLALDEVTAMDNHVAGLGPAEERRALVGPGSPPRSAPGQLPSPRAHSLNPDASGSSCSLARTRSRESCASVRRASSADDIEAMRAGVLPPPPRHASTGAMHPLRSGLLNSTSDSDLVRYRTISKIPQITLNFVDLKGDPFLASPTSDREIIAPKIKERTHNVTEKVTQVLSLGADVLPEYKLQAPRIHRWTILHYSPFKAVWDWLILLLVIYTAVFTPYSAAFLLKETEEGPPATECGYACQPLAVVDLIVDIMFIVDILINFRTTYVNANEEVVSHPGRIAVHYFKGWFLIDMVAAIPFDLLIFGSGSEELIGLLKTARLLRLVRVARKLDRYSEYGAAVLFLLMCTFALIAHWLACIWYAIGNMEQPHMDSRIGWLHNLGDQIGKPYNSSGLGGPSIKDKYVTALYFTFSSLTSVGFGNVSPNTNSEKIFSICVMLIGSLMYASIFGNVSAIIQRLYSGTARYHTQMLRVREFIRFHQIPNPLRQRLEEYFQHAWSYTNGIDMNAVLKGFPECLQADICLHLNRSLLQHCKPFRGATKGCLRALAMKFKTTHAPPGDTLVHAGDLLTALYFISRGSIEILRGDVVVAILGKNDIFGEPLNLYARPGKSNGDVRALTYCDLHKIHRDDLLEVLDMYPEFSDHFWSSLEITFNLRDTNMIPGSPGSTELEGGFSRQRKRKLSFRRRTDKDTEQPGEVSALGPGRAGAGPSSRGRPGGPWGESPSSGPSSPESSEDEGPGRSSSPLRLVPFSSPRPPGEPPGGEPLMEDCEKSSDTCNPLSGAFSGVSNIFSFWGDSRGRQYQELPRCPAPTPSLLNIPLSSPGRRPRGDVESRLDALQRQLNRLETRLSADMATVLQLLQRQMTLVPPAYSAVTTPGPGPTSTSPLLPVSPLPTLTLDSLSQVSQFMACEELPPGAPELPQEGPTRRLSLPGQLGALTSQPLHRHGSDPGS

SMILES | hERG current change (%, negative = inhibition) at 1uM [%]
CC(C)N(C(=O)CSc1nc2ccccc2n1-c1ccccc1)C(C)C | 7.89
CCOC(=O)N1CCN(c2nc(-c3ccccc3)c3cc(C)ccc3n2)CC1 | 8.83
COc1ccc(NS(=O)(=O)c2cn(C)c(=O)n(C)c2=O)c(OC)c1 | 10.7
O=C(c1ccc(F)cc1)c1c[nH]c(C(=O)NCc2cccnc2)c1 | 12.1
O=C(Oc1coc(CSc2ncccn2)cc1=O)c1ccco1 | 8.47
O=C(CSc1ccc2nnc(CCNC(=O)c3ccccc3)n2n1)NCc1ccc(F)cc1 | 10.4
Cc1ccccc1-c1noc(C23CC4CC(CC(C4)C2)C3)n1 | 7.35
COc1ccc(CCC(=O)OCC(=O)Nc2ccc3[nH]c(=O)[nH]c3c2)cc1 | 1.47
CC(=O)Nc1nnc(Cc2c[nH]c3ccccc23)s1 | 11.8
Cc1cc(=O)n2[nH]c(C(F)(F)F)c(-c3ccccc3)c2n1 | 8.36
Cc1cccn2c(=O)c3cc(C(=O)NCCc4ccccc4)c(=N)n(CC4CCCO4)c3nc12 (stereo not shown) | -91
COc1ccc(C(C)C)cc1S(=O)(=O)N1CCN(C)CC1 | 15.2
CC(OC(=O)c1cnccn1)C(=O)Nc1nc(-c2cccc([N+](=O)[O-])c2)cs1 (stereo not shown) | 8.07
COc1ccc2c(c1OC)C(=O)N(c1ccccn1)C2 | 3.36
COc1ccc(C(CNC(=O)CCC(=O)c2ccc(C)s2)N2CCOCC2)cc1 (stereo not shown) | 8.49
O=C(Nc1ccc(F)cc1F)c1ccc(S(=O)(=O)N2CCCCC2)cc1 | 7.73
COc1ccc(SN=C2C(C)=CC(=O)C=C2C)cc1 | 13.8
Cc1ccc(NC(=O)Cc2ccsc2)cc1Cl | 7.85
CC(C)(CO)N=Cc1c(O)[nH]c2ccccc12 | -11.6
Cc1ccccc1C(OCCN(C)C)C1CCCCC1.O=C(O)C(=O)O (stereo not shown) | 7.86
CCn1c(SCC(=O)N(C)CCC#N)nc2cc(S(=O)(=O)N3CCOCC3)ccc21 | 15.2
CCn1nc(C(=O)OCC(=O)c2cc(C)n(Cc3cccs3)c2C)c2ccccc2c1=O | 12.3

SMILES | hERG current change (%, negative = inhibition) at 1uM [%]
CC(C)(C)OC(=O)N/N=C\c1ccc[nH]1 | 10.1
O=C(C1CCCC1)N1CCN(S(=O)(=O)c2ccc(F)c(F)c2F)CC1 | 9.66
COC(=O)c1cc(NS(=O)(=O)c2ccc(C)c3ccccc23)ccc1N1CCOCC1 | 5.1
COc1ccc(OC)c2[nH]c(=O)c(CCNC(=O)c3ccc4c(c3)OCO4)cc12 | 9.06
NNC(=O)c1sc2cc(C(F)(F)F)cnc2c1-c1cccs1 | 18.8
CCOC(=O)[C@H]1[C@H]2COc3cc(OC)ccc3[C@@H]2N2C(=O)N(c3cccc(Cl)c3)C(=O)[C@@]12C | 5.19
O=S(=O)(c1ccc(Br)cc1)N1CCCc2ccccc21 | 10.4
O=C(CN1CCN(C(=O)N2CCOCC2)CC1)Nc1ccc(Br)cc1 | -7.33
O=c1[nH]c(NCc2ccco2)nnc1Cc1ccccc1Cl | 10.7
Cc1nn(Cc2ccccc2)c(=O)c2nn(-c3ccc(Cl)cc3)c(C)c12 | 10.9
O=C(OCC(=O)N1CCCc2ccccc21)c1ccc(C(F)(F)F)cc1 | -1.32
Cc1cc2c(cc1C)NC1(C(=O)Nc3ccccc31)C1=C(CC(C)(C)CC1=O)N2 (stereo not shown) | 9.28
COc1ccc(N2C(=NC(=O)CCC3CCCC3)SC3CS(=O)(=O)CC32)cc1 (stereo not shown) | 16.2
COc1ccccc1NS(=O)(=O)c1ccc(Cl)cc1 | 4.63
CCCOCC1CC2(SC(=Nc3ccc(C)cc3)NC2=O)C(=O)O1 (stereo not shown) | 9.97
Cn1c(=O)c(=O)n(C)c2cc(N3CCCC3)c(NS(=O)(=O)c3ccc(Cl)cc3)cc21 | -18.4
Cc1cc(/C=C2\NC(=S)NC2=O)c(C)n1-c1cccnc1 | 8.06
C=C(C)[C@@H]1[C@H]2OC(=O)[C@@H]1[C@]1(O)C[C@H]3O[C@]34C(=O)O[C@H]2[C@]14C.CC(C)(O)[C@@H]1[C@H]2OC(=O)[C@@H]1[C@]1(O)C[C@H]3O[C@]34C(=O)O[C@H]2[C@]14C | 0.134
COc1cc(NS(=O)(=O)c2ccc(NC(=S)NC(=O)c3sc4ccccc4c3Cl)cc2)nc(OC)n1 | 2.44
CCCn1nnc(NC(=O)c2cccnc2Cl)n1 | 12
COCCN1CN=C(Nc2nc3ccccc3o2)NC1 | 11
COC(=O)C1=C(C)N(C)C(=O)NC1c1cc(Cl)cc(Cl)c1OC (stereo not shown) | -1.95

SMILES | hERG current change (%, negative = inhibition) at 1uM [%]
O=C(O)CC/C(=C\c1ccc(N2CCCC2)c([N+](=O)[O-])c1)c1nc2ccccc2s1 | 24.9
Cc1onc(-c2c(F)cccc2Cl)c1C(=O)NCCO | 4.8
Cc1ccc2c(c1)N(CC(=O)N1CCN(c3nc4ccccc4s3)CC1)C(=O)C(C)O2 (stereo not shown) | -8.35
CCN1CCN(S(=O)(=O)c2cc(C)c(OC)cc2C)CC1 | 5.91
CCCn1ncc(CN2CCC(N3CCC(C(=O)N4CCOCC4)CC3)CC2)c1C | 5.56
COc1ccc(/C=N\Nc2ccc([N+](=O)[O-])cc2[N+](=O)[O-])c(C(=O)O)c1OC | -4.14
O=C(O)c1cc(N2CCOCC2)nc2ccccc12 | 12.5
COc1c2c(nc3ccccc13)OC(C(C)(O)COC(C)=O)C2 (stereo not shown) | -5.16
CCOC(CNC(=O)c1ccc(N2CCc3ccccc32)c([N+](=O)[O-])c1)OCC | -5.37
CC(=O)O.N=c1ccn2c(n1)OC1C(O)C(CO)OC12 (stereo not shown) | 8.06
NC(=O)C1=C[C@H](c2coc3ccccc3c2=O)C[C@H](OCc2ccc(CO)cc2)O1 | 11.4
Cc1csc(SC(C)C(=O)Nc2ccc3c(c2)OCCO3)n1 (stereo not shown) | 8.06
COc1ccc(C(=O)OCC(=O)Nc2cc(C)on2)cc1S(=O)(=O)N1CCOCC1 | 3.14
CCCC(=O)N(CCc1ccc(OC)cc1)Cc1nc2ccccc2c(=O)[nH]1 | -4.11
CCOc1ccc(Cl)cc1Nc1nc(NCCO)nc(N2CCCC2)n1 | 5.92
Cc1cccc(CNC(=O)Cn2ccc3cc(S(=O)(=O)N4CCCCCC4)ccc32)c1 | 17.2
Cc1ccc(NC(=O)CS(=O)(=O)c2cn(CC(=O)N3CCOCC3)c3ccccc23)cc1 | 9.48
O=C(COc1ccc2c(c1)oc(=O)c1ccccc12)N[C@@H](Cc1c[nH]c2ccccc12)C(=O)O | 14.8
CCOC(=O)c1cc(C#N)c(N2CCN(C(=O)c3cccc(C(F)(F)F)c3)CC2)nc1C(F)(F)F | 9.92
Cc1ccccc1SCc1noc(C(=O)NCC2CCCO2)c1C(=O)O (stereo not shown) | 14
Cc1cc(F)ccc1S(=O)(=O)N1CCCOC1CNC(=O)C(=O)NCC(C)C (stereo not shown) | 1.4
Cn1c(SCC(=O)N2CCOCC2)nnc1-c1cccc(NC(=O)c2ccccc2)c1 | 12.3

SMILES | hERG current change (%, negative = inhibition) at 1uM [%]
COc1ccc(CNCc2cccc(Oc3ccccc3)c2)cc1 | -0.928
CCOC(=O)COc1ccc(C(=O)NC2CCCCC2)cc1 | 6.15
c1coc(-c2nnc(-c3ccco3)nn2)c1 | 15.6
Cc1ccc(C(NC(N)=O)c2ccccc2)cc1 (stereo not shown) | 10.2
C[C@@]12C(=O)N(c3cccc(Br)c3)C(=O)N1[C@H](c1ccc(Cl)cc1)[C@@H]1C(=O)N(C3CCCCC3)C(=O)[C@@H]12 | 9.64
O=P(/C(=N/O)Sc1ccccc1)(N1CCOCC1)N1CCOCC1 | -19.2
COc1ccc(-n2nc(C(=O)NCC(=O)NCCCN3CCOCC3)c3ccccc3c2=O)cc1OC | 8.97
CCOC(=O)c1c(NC(=O)CSc2nnc(C)c(=O)[nH]2)sc2c1CCCC2 | -1.49
CCOc1ccc(CN(C)C(=O)c2cc3ccccc3o2)cc1OC | 4.36
Cc1cccc(CCNC(=O)Cn2ncc3c([nH]c4ccccc43)c2=O)c1 | 5.51
O=C(Nc1ccc(Cl)cc1)NC1CCCC1Cc1ccco1 (stereo not shown) | -0.512
COc1ccc(COc2cc(-c3cccc(OC)c3)nc3ccc(NC(=O)c4ccc(C)cc4)cc23)cc1 | 13.4
CCN(Cc1ccccc1)C(=O)COc1ccccc1 | 12.6
Cc1ccc(NC(=O)/C(C#N)=N/Nc2ccc(C(=O)O)cc2)c(C)c1 | 10.8
COc1cccc2c(N/N=C/c3ccc(O)c(O)c3)cc(C)nc12 | 16.8
COc1ccc(N(Cc2ccccc2)S(=O)(=O)c2cc(C(=O)O)ccc2Cl)cc1 | 5.98
O=c1c2ccccc2nc(SCc2ccccc2)n1Cc1ccco1 | 9.88
O=C(Nc1ccccn1)c1cccnc1 | -1.28
Cc1cccc(NC(=O)CCC(=O)Nc2nnc(C3CCCCC3)s2)c1 | 18.5
